B1: chr14:102729990:102730091:+|3pUTR|ENSG00000089902|msi1|FALSE|unique (ssRNA)
RNA: GGGAGUUCUACAGUCCGACGAUCUGCGAUGCUCUUUCUGCCAGUCCCUGAAUCUCUGCAGCUUCUCUUACCUGUCUUACCUGUAGUAAAGCACAAUUGCAGUGGCGUCGCAUUCAGAAGAAGGGAAGGUCAGCAGAGGCUAUGCAACAGAGGAUUGAGCAUCA
B2: ENSG00000142192:stop:overlap|stop_codon|ENSG00000142192|stop_codon|NA|stop_codon (ssRNA)
RNA: GGGAGUUCUACAGUCCGACGAUCAGAUGCAGCAGAACGGCUACGAAAAUCCAACCUACAAGUUCUUUGAGCAGAUGCAGAACUAGACCCCCGCCACAGCAGCCUCUGAAGUUGGACAGCAAAACCAUUGCUUCACUACCCAUCCAACAGAGGAUUGAGCAUCA
B3: ENSG00000198589:be:win_3901|CDS|ENSG00000198589|bound_else_gene|NA|bound_elsewhere_windowed (ssRNA)
RNA: GGGAGUUCUACAGUCCGACGAUCUCUACUGUGUUUCGUAUUCCUGAGUUCAACUGGUCUCAGAUGCAUCAACGUUUGCUCACUGAUCUAUUAUUUUCAAUAGAAACAGAUAUACAGAUGUGGAGAAGCCAUUCAACAAAGACACAACAGAGGAUUGAGCAUCA
B4: ENSG00000179431:stop:overlap|stop_codon|ENSG00000179431|stop_codon|NA|stop_codon (ssRNA)
RNA: GGGAGUUCUACAGUCCGACGAUCACUUCCUCGCCAAGCACAUUUUGCACUGUAAGGCCAAGUACGGCCGCCGGUCUGGGACUUAGUGUCACCGGGAGGAAAAGAGAGAGAUCUGGGGCUGGGGUAUGGAUGAUGGGGGGAAGGCAACAGAGGAUUGAGCAUCA
B5: chr18:58535911:58536012:-|CDS|ENSG00000198796|msi1|total|mutant (ssRNA)
RNA: GGGAGUUCUACAGUCCGACGAUCUCUGACCUGCCCUAAAAUCCCCGAGUCCUCUGCCGAUCCCAUUGAUGAGAUAAGUGUGACCGAGUACACCAGGGCUGGAAAACCAGAGCCCUCUGAAACCACACCACAGGGCGCCAGAGACAACAGAGGAUUGAGCAUCA
B6: chr7:116918052:116918157:+|3pUTR|ENSG00000198898|unk|total|mutant (ssRNA)
RNA: GGGAGUUCUACAGUCCGACGAUCUUUUCAUUUUGUUUGUUCUAAGAGGAUUGAAAAUCAGUUCCGUUUAAAUGUCUUUCUGUCCGGCCUUUCUUUCUUACAAUGAAGAGAUGAUUCUUCCCGUUUAUGGUUAAAAGUUUUUGACAACAGAGGAUUGAGCAUCA
B7: chr1:109011400:109011505:-|CDS|ENSG00000085433|unk|total|mutant (ssRNA)
RNA: GGGAGUUCUACAGUCCGACGAUCGUCAUGGUUGCAGAAUUCAUCCCUGCUGACCGGAAGCUAAGUGAAGCUGGUUUUAAGGCCCGUAACAAUCGUUUAUUUCAGCUUGUAAUGAAAGGCCUGCUUUAUGAAUGCUGUGCCGAACAACAGAGGAUUGAGCAUCA
B8: ENSG00000198589:be:win_2751|CDS|ENSG00000198589|bound_else_gene|NA|bound_elsewhere_windowed (ssRNA)
RNA: GGGAGUUCUACAGUCCGACGAUCAAUCACUCAUUCAAAGGUCACUUUUGAAAUACACAAAGAAAACCUUGCCAAUAUAUUUAGGGAACAGCAAGGAAAAGUUGAUGAAGAAAUAGGGCUGUGUUCUUCAACUUCAGUUCAAGCCAACAGAGGAUUGAGCAUCA
B9: ENSG00000198589:be:win_9151|3pUTR|ENSG00000198589|bound_else_gene|NA|bound_elsewhere_windowed (ssRNA)
RNA: GGGAGUUCUACAGUCCGACGAUCAUUGUGUGGUUAGCACAAGGAAUCUAAUUUAUAGCAAGUGUGAAAUAGUUACCAUUUUUUCCUGAUCUGUCAUCUUCAUAGCACAACAAAACGAAAUGAUGGAAAUGCUCUUGAGCUCACCAACAGAGGAUUGAGCAUCA
B10: chr2:216675367:216675485:-|3pUTR|ENSG00000115461|msi1|FALSE|unique (ssRNA)
RNA: GGGAGUUCUACAGUCCGACGAUCGCCAGGCAGAGGCCAGCCCUCCGUGGUGCACACAGCACGCGCCUCAGUCCAUCCCAUUUUAGUCUUUAAACCCUCAGGAAGUCACAGUCUCCGGACACCACACCACAUGAGCCCAACAGGCAACAGAGGAUUGAGCAUCA
B11: chr2:96252317:96252350:-|3pUTR|ENSG00000135956|msi1_unk|FALSE|overlapping (ssRNA)
RNA: GGGAGUUCUACAGUCCGACGAUCGUGUCCCCUGCUGAGCUGAAAAGGAAAUGGAUUCCAAUCUCUUCCAACCUUUAAGGUGAUAGAUAGUUUGAGCAAGACUGGAGAAUGGACAACACUAUGAAGCUGUGGCUAGAAAGGGACCAACAGAGGAUUGAGCAUCA
B12: chr1:6224442:6224573:-|3pUTR|ENSG00000116237|msi1_unk|total|mutant (ssRNA)
RNA: GGGAGUUCUACAGUCCGACGAUCCUAUACAAUUUUAAAAAUACUUCCUCACCGGAUGCUUUGGCCCUUCAUCUAUUUAAUCACCGCUACAUACCUAUUUUUUAUAAGCCGCAGUACACAUUCAAAGGGGUAUUCCCCGCUCAACAACAGAGGAUUGAGCAUCA
B13: chr4:78448087:78448188:+|CDS|ENSG00000138759|msi1|total|mutant (ssRNA)
RNA: GGGAGUUCUACAGUCCGACGAUCGCCUCUGGAGAAUGGGAGAGUUUCCGUCCAGGGCUCAACCUUCACCUACCAGGAUAUCCCCGCUGGGCUGGUUGGGUAUGUGCCCCGUGUCCCUGGCAUGGUCGUGGAUGAGUUCCAGUUCAACAGAGGAUUGAGCAUCA
B14: chr12:30629720:30629821:-|3pUTR|ENSG00000133704|msi1|total|mutant (ssRNA)
RNA: GGGAGUUCUACAGUCCGACGAUCCUUCUUGCUUUCUCACCUAUUUGAAUUUUCUCCUACCUAAUUUGUUUGUGUCUUUAUUACCGCUCAGUUUGACUUCUCAAACUUUUCAAGGGUUGGGGCAGCUGCACUUUCCGGUUGCCUCAACAGAGGAUUGAGCAUCA
B15: chr1:17407970:17408071:-|3pUTR|ENSG00000179051|msi1|FALSE|unique (ssRNA)
RNA: GGGAGUUCUACAGUCCGACGAUCGGGUACCGUUCUGCUGACCCAGCUCCCUUUAGUCACGUUUGCUUGGCUCUGGUACCAAAUAGUUGGGAUUACCGAAGAGUCCCCUUCCUUGCGUGUCAGCACGGAUGCUGUGACUGCCACCAACAGAGGAUUGAGCAUCA
B16: chr15:63775065:63775180:-|CDS|ENSG00000103657|unk|FALSE|unique (ssRNA)
RNA: GGGAGUUCUACAGUCCGACGAUCUGGUUCAGCAGAUGUCCAUUCUGUUAGUGAACGCCCCCGGUCAAGCACUGAUGCACUUAUAGAAAUGGGUGUUCGAACUGGUCUAAGUUUAUUAUUUGCGCUUCUAAGACAAAGUUGGAUCAACAGAGGAUUGAGCAUCA
B17: chr1:203741760:203741861:+|3pUTR|ENSG00000058668|msi1|total|mutant (ssRNA)
RNA: GGGAGUUCUACAGUCCGACGAUCAUUUUGGUUUUGUAAAACGUACAUGCUUCAAUAAUUCUUUUUUGUGUCUUAAAUACUCACCGGGGAAAAAAACAGCUCACCCAAGGUGUCCGGUUUCACAUAUAUAUUCAUCAACUAUUUCAACAGAGGAUUGAGCAUCA
B18: chr14:74902662:74902763:+|3pUTR|ENSG00000119689|msi1|total|mutant (ssRNA)
RNA: GGGAGUUCUACAGUCCGACGAUCCCCCUGGGGACCAUGUGAUUAAGUUCCUAUCUUUUGAAAGUUUGUUCUGCAGAGACUUCCCGGAGGAUGCUGUGCCUCCCAAGCUCAGAGCAGCCUCUGUCCUGGCUGUGCACAUUCUCCCAACAGAGGAUUGAGCAUCA
B19: chr12:109554177:109554278:-|3pUTR|ENSG00000139428|unk|total|mutant (ssRNA)
RNA: GGGAGUUCUACAGUCCGACGAUCUUGCUAUGUGCAGUGCCCUGAGCCAAGUGUUCCACAGACAUUAUCUCAUUUGAACCCCACCGCAGCCCUGGAAGGAGGCAUUGGGUGGGGAACCAAGUUGUCCUGGGGAGUCAGUGCCAACAACAGAGGAUUGAGCAUCA
B20: chr11:59152587:59152688:+|CDS|ENSG00000166801|msi1|FALSE|unique (ssRNA)
RNA: GGGAGUUCUACAGUCCGACGAUCAUUGAAAACUUCAAGAAAAAAAUGAAAGUAAAAAAUGGGGAAACAUUAUUUGAAUUGCAUAGAACAACGUUUGGGAAAGUAACAAAAAAUUCUUCUUCGAUUAAAGUAGUGAAACUUCUUCAACAGAGGAUUGAGCAUCA
B21: chr16:57253408:57253449:+|3pUTR|ENSG00000102931|msi1_unk|total|mutant (ssRNA)
RNA: GGGAGUUCUACAGUCCGACGAUCUGUGUGGCCGAUUACUUAUCAGAAAACAUAUAUGUCAUCUCCCGAACGAAGAAAAAGCACCGCCGUUCAAUUCCCAGUGUGUCCCUUUGAUUUUUUUUUUUUAACCGUAAAAAUAAGAAUCAACAGAGGAUUGAGCAUCA
B22: chr2:130462818:130464144:-|CDS|ENSG00000196834|control|control|control (ssRNA)
RNA: GGGAGUUCUACAGUCCGACGAUCACCACCAUGUACCCUGGCAUGGCCCACAGAAUGCAGAAGGAGAUCGCUGCCCUGGCGCCUAGCAUGUUGAAGAUCAGGAUCAUUGCUCCUCCCAAGCGCAAGUACUCCGUGUGGGUCGGUCAACAGAGGAUUGAGCAUCA

Some of the results follow.

This experiment has as its target MSI1 full-length (mouse, UniProt Q61474 1-362). Description: nsRBNS (natural sequence RNA bind-n-seq); RBNS binding buffer (assumed for nsRBNS): 25 mM Tris pH 7.5, 150 mM KCl, 3 mM MgCl2, 0.01% Triton X-100, 500 ug/ml BSA, 20 U/ml SUPERase-In, 4 C; UNK is unkempt and MSI1 is Musashi-1; names of the RNAs are library labels; protein concentration not given here; high values mean tight binding.
Chain of UniProt Q61474 (Q61474 whole entry): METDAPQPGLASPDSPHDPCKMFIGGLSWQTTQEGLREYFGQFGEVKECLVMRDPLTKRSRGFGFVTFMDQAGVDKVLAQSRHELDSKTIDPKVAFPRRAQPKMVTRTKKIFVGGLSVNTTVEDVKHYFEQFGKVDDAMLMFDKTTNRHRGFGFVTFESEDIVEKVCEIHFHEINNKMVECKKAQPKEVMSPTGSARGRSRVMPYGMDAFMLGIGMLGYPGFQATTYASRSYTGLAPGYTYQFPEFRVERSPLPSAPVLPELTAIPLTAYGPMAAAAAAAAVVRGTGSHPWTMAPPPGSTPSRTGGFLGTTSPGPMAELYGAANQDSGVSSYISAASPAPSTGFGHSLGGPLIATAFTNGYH
Regarding B1, the binding signal is 0.354 enrichment R.

B2 registered a binding signal of 0.438 enrichment R.

Molecule B3 showed a binding signal of 0.241 enrichment R.

B4: the binding signal came out at 0.478 enrichment R.

With B5, the binding signal stood at 0.486 enrichment R.

B6 showed a binding signal of 0.584 enrichment R.

B7 yielded a binding signal of 0.641 enrichment R.

B8: the binding signal came out at 1.26 enrichment R.

B9: the binding signal was determined as 33.5 enrichment R.

Molecule B10 yielded a binding signal of 1.36 enrichment R.

B11 returned a binding signal of 1.95 enrichment R.

In turn, B12 registered a binding signal of 18.3 enrichment R.

In turn, B13 came in with a binding signal of 0.461 enrichment R.

For B14, the binding signal turned out to be 0.628 enrichment R.

Take B15: the binding signal was 0.973 enrichment R.

B16 gave a binding signal of 0.851 enrichment R.

Molecule B17 showed a binding signal of 0.777 enrichment R.

For B18, the binding signal came out at 0.344 enrichment R.

In the case of B19, the binding signal stood at 0.414 enrichment R.

In the case of B20, the binding signal was found to be 0.574 enrichment R.

In turn, B21 displayed a binding signal of 0.465 enrichment R.

In the case of B22, the binding signal was determined as 0.506 enrichment R.

Values taken from PMC12136788.
